The assay has as its system Plasmodium falciparum NF54 stage V gametocytes. Description: viability index relative to DMSO control (fraction); higher = less gametocyte killing. Particulars: 2.5 µM, incubation time: 72 h. In outline: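 P. falciparum NF54 stage V gametocytes (serum-free medium, 0.75% gametocytemia, 1.25% hematocrit) were exposed to compound at 2.5 µM for 72 hr at 37°C under low oxygen, then stained with MitoTracker Red CMXRos and saponin for one to two hours. Red particles of 20–70 µm2 in one field per well were counted, and the viability index is that count scaled to the plate mean of solvent-only wells.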

The mark [1] stands for this setting: library set: Broad Institute DOS.
Where [2] appears, read: library set: Broad Institute Blood Stage.

In the supplement of paper PMC4723716 one finds viability index data, which are given here for 35 compounds.

± gives the uncertainty stated by the source. Over roughly 9,900 compounds, “viability index relative to DMSO control” has its median near 1; the lowest 2% begin near 0.85. The list shows a part of the results.

With `O=C(NC[C@H]1[C@H](c2ccccc2)[C@H](CO)N1C(=O)C1CCC1)NC1CCCC1`, under setting [1], the viability index was 0.995 ± 0.038.
`COc1cccc(C#Cc2ccc([C@@H]3[C@@H](C#N)N(C(=O)C4CCCCC4)[C@H]3CO)cc2)c1` registered a viability index under setting [2] of 0.7 ± 0.1.
On to `Cc1ccccc1S(=O)(=O)N1CCCCN2[C@@H](CO)[C@@H](c3ccc(C#CCN(C)C)cc3)[C@@H]2C1`, for which the viability index under setting [1] was found to be 0.947 ± 0.032.
In turn, `O=C(Cc1ccccc1)NC[C@H]1N[C@H](CO)[C@@H]1c1ccc(C2=CCCC2)cc1` yielded a viability index under setting [1] of 1.01 ± 0.032.
Consider `CN(C)C(=O)[C@@H]1[C@@H](CO)[C@@H]2Cn3c(ccc(/C=C/c4ccccc4)c3=O)[C@@H]2N1C(=O)c1cccnc1`, for which the viability index under setting [1] is 1.08 ± 0.033.
Still for that read-out and setting: with `COc1ccccc1CN1[C@@H]2Cn3c(cccc3=O)[C@H]1[C@@H](C(=O)N1CCc3ccccc3C1)[C@@H]2CO` the figure was 1.068 ± 0.0069; with `CN(C)C(=O)c1cc2c(c(-c3cccc(/C=C/c4ccccc4)c3)n1)[C@H](CCO)N([S@@](=O)C(C)(C)C)C2`, 0.973 ± 0.089; with `CN(C)C(=O)c1cccc(-c2ccccc2[C@@H]2[C@@H](C#N)N(C(=O)C3CCCCC3)[C@H]2CO)c1`, 1.11 ± 0.11.
The compound `CCCNC(=O)N1CC(=O)N2[C@H](CO)[C@H](c3ccc(-c4ccc(F)cc4)cc3)[C@@H]2C1` gave a viability index under setting [1] of 0.963 ± 0.026.
Regarding `CO[C@@H]1CN(C)C(=O)c2ccc(NS(C)(=O)=O)cc2OC[C@@H](C)N(C(=O)CN(C)C)C[C@H]1C`, the viability index under setting [1] turned out to be 0.977 ± 0.055.
Under setting [1], `COC(=O)C[C@H]1CC[C@@H]2[C@@H](COc3ccc(NC(=O)Nc4c(C)noc4C)cc3C(=O)N2C)O1` gave a viability index of 0.983 ± 0.14.
`O=C(C[C@H]1CC[C@@H]2[C@H](COC[C@H](O)CN2CC2CCOCC2)O1)NCc1ccc(Cl)cc1` registered a viability index under setting [1] of 1.12 ± 0.015.
For `C/C=C/c1ccc([C@H]2[C@H](CO)N3C(=O)CN(S(=O)(=O)c4ccccc4)C[C@@H]23)cc1`, the viability index under setting [1] came out at 1.002 ± 0.0044.
On to `COc1ccc(NC(=O)N(C)C[C@H]2Oc3c(NC(=O)CCCCCC(=O)Nc4ccccc4N)cccc3C(=O)N([C@H](C)CO)C[C@@H]2C)cc1`, for which the viability index under setting [1] came to 0.985 ± 0.11.
In turn, `O=C(Nc1cccc(Cl)c1)N[C@@H]1CC[C@@H](CCn2cc(Cc3ccccc3)nn2)O[C@@H]1CO` gave a viability index under setting [1] of 1.09 ± 0.079.
Under setting [1], `C[C@H](CO)N1C[C@H](C)[C@H](CN(C)S(=O)(=O)c2cn(C)cn2)OCc2ccccc2-c2ccccc2C1=O` came in with a viability index of 0.955 ± 0.1.
Take `C[C@@H]1CN([C@@H](C)CO)S(=O)(=O)c2ccc(-c3ccc(F)cc3)cc2O[C@@H]1CN(C)Cc1ccccc1C(=O)O`: the viability index under setting [1] was determined as 1.0249 ± 0.00085.
Take `CN(C)C(=O)C[C@@H]1C[C@@H]2c3cc(NC(=O)c4cccnc4)ccc3O[C@@H]2[C@H](CO)O1`: the viability index under setting [1] was found to be 1.126 ± 0.0019.
Compound `O=C1CNC[C@@H]2[C@@H](c3ccc(C4=CCCC4)cc3)[C@@H](CO)N12` had a viability index under setting [1] of 0.996 ± 0.074.
Consider `CCS(=O)(=O)Nc1ccc2c(c1)C(=O)N(C)[C@H]1CC[C@H](CC(=O)NCc3ccc(OC)cc3)O[C@@H]1CO2`, for which the viability index under setting [1] turned out to be 0.933 ± 0.14.
For the compound `CCC(=O)N1CC(=O)N2[C@H](CO)[C@H](c3ccc(-c4ccc(C#N)cc4)cc3)[C@@H]2C1`, the viability index under setting [1] worked out at 1.003 ± 0.0037.
Same read-out and setting: with `CCC(=O)N1[C@@H]2CN(S(=O)(=O)c3ccc(F)cc3)c3ccccc3[C@@H]2[C@@H]1CO` the figure was 1.02 ± 0.07; with `COc1ccccc1CN1[C@@H]2CNC[C@H]1[C@@H]2c1ccc(-c2cccc(C#N)c2)cc1`, 1 ± 0.04.
The same measure, in the same setting: the same measure for `C[C@H](CO)N1C[C@H](C)[C@@H](CN(C)Cc2ccncc2)OCCCC[C@H](C)Oc2ccc(NS(=O)(=O)c3ccc(Cl)cc3)cc2C1=O`: 1.098 ± 0.0097.
Consider `CO[C@H]1CN(C)C(=O)c2ccc(NC(=O)C3CCC3)cc2OC[C@@H](C)N(Cc2ccccn2)C[C@@H]1C`, for which, under setting [1], the viability index came out at 1.11 ± 0.055.
For the compound `CC(C)[C@H]1C/C=C\CCNC(=O)[C@@H](C)CC(=O)N1`, the viability index under setting [1] was 1.02 ± 0.073.
As to `COc1ccc(S(=O)(=O)N(C)C[C@H]2Oc3c(NC(=O)Nc4cccc5ccccc45)cccc3C(=O)N([C@@H](C)CO)C[C@H]2C)cc1`, the viability index under setting [2] is 0.767 ± 0.035.
Under setting [1], `CN1CCN(C(=O)C[C@H]2CC[C@H]3[C@@H](COC[C@H](O)CN3C(=O)c3ccccc3F)O2)CC1` returned a viability index of 0.997 ± 0.099.
Take `Cc1ccc(S(=O)(=O)N[C@@H]2CC[C@@H](CC(=O)NCc3ccncn3)O[C@H]2CO)cc1`: under setting [1], the viability index stood at 0.929 ± 0.075.
Under setting [1], `COc1ccc(CN2[C@H](CO)[C@@H]3c4ccccc4N(C(=O)NC(C)C)C[C@@H]32)cc1` had a viability index of 1.06 ± 0.024.
`Cc1noc(C)c1NC(=O)N(C)C[C@@H]1OCCCC[C@@H](C)Oc2ccc(NC(=O)Nc3ccc(C(F)(F)F)cc3)cc2C(=O)N([C@@H](C)CO)C[C@H]1C` displayed a viability index under setting [1] of 1.03 ± 0.053.
Compound `C[C@H]1CN([C@@H](C)CO)C(=O)c2cc(NC(=O)Cn3cnnn3)ccc2O[C@@H]1CN(C)Cc1ccc(C(=O)Nc2ccccc2N)cc1` showed a viability index under setting [1] of 1.05 ± 0.12.
Compound `COc1ccccc1S(=O)(=O)N(C)C[C@@H]1OCc2ccccc2-c2ccccc2C(=O)N([C@@H](C)CO)C[C@H]1C` returned a viability index under setting [1] of 1.07 ± 0.095.
Compound `C[C@H]1CN([C@@H](C)CO)C(=O)CCCn2cc(nn2)CO[C@H]1CN(C)C(=O)c1ccc(N2CCN(C)CC2)cc1` had a viability index under setting [1] of 1 ± 0.014.
Consider `COc1cccc(-c2ccc3c(c2)[C@@H]2[C@@H](CCN2S(=O)(=O)c2cn(C)cn2)[C@@H](CO)N3)c1`, for which, under setting [1], the viability index came out at 0.97 ± 0.14.
